# Measurements as given in the supplement of paper PMC12217912.
# Some of the results follow. The full chains were built here from the parent and the listed change. Inactive controls read about 0.05.
# B1: TEV protease; numbered along this chain (parent)
# chain: MGESLFKGPRDYNPISSSICHLTNESDGHTTSLYGIGFGPFIITNKHLFRRNNGTLVVQSLHGVFKVKDTTTLQQHLVDGRDMIIIRMPKDFPPFPQKLKFREPQREERICLVTTNFQTKSMSSMVSDTSCTFPSGDGIFWKHWIQTKDGQCGSPLVSTRDGFIVGIHSASNFTNTNNYFTSVPKNFMELLTNQEAQQWVSGWRLNADSVLWGGHKVFMVKPEEPFQPVKEATQL
# Variants of: B1
# Test: raw area under fraction-flipped curve 0-4 h after induction (AUC4h, not background-subtracted), DNA-recorder readout of cleavage of the substrate (dimensionless); higher = more cleavage of the substrate by the protease variant
# Details: temperature: 34 °C; time window: 0-4 h after rhamnose induction
# Experimental: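 In vivo DNA recorder in E. coli TOP10(DE3) ΔrhaA at 34 °C. Each TEVp single-site mutant (parent TEVp 0) is paired with a single-site variant of the 7-mer TEVs (canonical ENLYFQ|S). The substrate sits between flexible linkers in a Bxb1-sfGFP-TEVs-SsrA fusion, so cleavage stabilises Bxb1 and speeds flipping of a recombination array, read by NGS. The value is the raw area under the fraction-flipped curve over 0-4 h after rhamnose induction (AUC4h), with ≥20 reads per time point. It is not background-subtracted; inactive controls average about 0.047.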
# 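Further: Bxb1 expression induced with 0.2% (w/v) L-rhamnose at OD600 near 0.5, cultures sampled hourly, flipped fraction per protease–substrate barcode pair counted by paired-end Illumina sequencing.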
Variant,area with substrate ENLAFQS,area with substrate ENLCFQS,area with substrate ENLDFQS,area with substrate ENLEFQS,area with substrate ENLFFQS,area with substrate ENLHFQS,area with substrate ENLIFQS,area with substrate ENLKFQS,area with substrate ENLLFQS,area with substrate ENLNFQS,area with substrate ENLPFQS,area with substrate ENLQFQS,area with substrate ENLRFQS,area with substrate ENLSFQS,area with substrate ENLWFQS,area with substrate ENLGFQS,area with substrate ENLMFQS,area with substrate ENLVFQS
MGESLFKGPRDYNPISSSICHLTNESDGHTTSLYGIGFGPFIITNKHLFRRNNGTLVVQSLHGVFKVKDTTTLQQHLVDGRDMIIIRMPKDFPPFPQKLKFREPQREERICLVTTNFQTKSMSSMVSDTSCTFPSGDGIFWMHWIQTKDGQCGSPLVSTRDGFIVGIHSASNFTNTNNYFTSVPKNFMELLTNQEAQQWVSGWRLNADSVLWGGHKVFMVKPEEPFQPVKEATQL [K142M],0.0897,0.0814,0.0622,0.0663,0.083,0.079,0.0942,0.0789,0.076,0.0625,0.0694,0.0601,0.0731,0.0706,0.0713,,,
MGESLFKGPRDYNPISSSICHLTNESDGHTTSLYGIGFGPFIITNKHLFRRNNGTLVVQSLHGVFKVKDTTTLQQHLVDGRDMIIIRMPKDFPPFPQKLKFREPQREERICLVTTNFQTKSMSSMVSDTSCTFPSGDGIFWKKWIQTKDGQCGSPLVSTRDGFIVGIHSASNFTNTNNYFTSVPKNFMELLTNQEAQQWVSGWRLNADSVLWGGHKVFMVKPEEPFQPVKEATQL [H143K],0.0574,,,0.0602,0.0611,,0.0742,0.0588,0.0776,0.0589,0.0749,,0.0536,0.0644,0.0694,0.0721,0.044,0.0573
MGESLFKGPRDYNPISSSICHLTNESDGHTTSLYGIGFGPFIITNKHLFRRNNGTLVVQSLHGVFKVKDTTTLQQHLVDGRDMIIIRMPKDFPPFPQKLKFREPQREERICLVTTNFQTKSMSSMVSDTSCTFPSGDGIFWKWWIQTKDGQCGSPLVSTRDGFIVGIHSASNFTNTNNYFTSVPKNFMELLTNQEAQQWVSGWRLNADSVLWGGHKVFMVKPEEPFQPVKEATQL [H143W],0.0248,0.049,0.0631,0.0469,0.0746,0.0574,0.0661,0.0607,0.0917,0.0577,0.0525,0.066,,,,,0.112,
MGESLFKGPRDYNPISSSICHLTNESDGHTTSLYGIGFGPFIITNKHLFRRNNGTLVVQSLHGVFKVKDTTTLQQHLVDGRDMIIIRMPKDFPPFPQKLKFREPQREERICLVTTNFQTKSMSSMVSDTSCTFPSGDGIFWKHWYQTKDGQCGSPLVSTRDGFIVGIHSASNFTNTNNYFTSVPKNFMELLTNQEAQQWVSGWRLNADSVLWGGHKVFMVKPEEPFQPVKEATQL [I145Y],0.058,0.0636,,0.0656,0.0624,,0.0554,0.0729,,0.059,0.0619,0.0522,0.0597,0.0706,,,0.0618,
